According to the supplement of paper PMC12217912:
This is one part of the list. Sequences were assembled here from the parent chain. Inactive controls read about 0.05.

B1: TEV protease; numbered along this chain (parent)
chain: MGESLFKGPRDYNPISSSICHLTNESDGHTTSLYGIGFGPFIITNKHLFRRNNGTLVVQSLHGVFKVKDTTTLQQHLVDGRDMIIIRMPKDFPPFPQKLKFREPQREERICLVTTNFQTKSMSSMVSDTSCTFPSGDGIFWKHWIQTKDGQCGSPLVSTRDGFIVGIHSASNFTNTNNYFTSVPKNFMELLTNQEAQQWVSGWRLNADSVLWGGHKVFMVKPEEPFQPVKEATQL

Variants of: B1
Test: raw area under fraction-flipped curve 0-4 h after induction (AUC4h, not background-subtracted), DNA-recorder readout of cleavage of the substrate (dimensionless); higher = more cleavage of the substrate by the protease variant
Conditions: temperature: 34 °C; time window: 0-4 h after rhamnose induction
Description: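 In vivo DNA recorder in E. coli TOP10(DE3) ΔrhaA at 34 °C. Each TEVp single-site mutant (parent TEVp 0) is paired with a single-site variant of the 7-mer TEVs (canonical ENLYFQ|S). The substrate sits between flexible linkers in a Bxb1-sfGFP-TEVs-SsrA fusion, so cleavage stabilises Bxb1 and speeds flipping of a recombination array, read by NGS. The value is the raw area under the fraction-flipped curve over 0-4 h after rhamnose induction (AUC4h), with ≥20 reads per time point. It is not background-subtracted; inactive controls average about 0.047.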
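Also: Bxb1 expression induced with 0.2% (w/v) L-rhamnose at OD600 near 0.5, cultures sampled hourly, flipped fraction per protease–substrate barcode pair counted by paired-end Illumina sequencing.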

| Variant | area with substrate ENAYFQS | area with substrate ENDYFQS | area with substrate ENEYFQS | area with substrate ENGYFQS | area with substrate ENHYFQS | area with substrate ENIYFQS | area with substrate ENNYFQS | area with substrate ENPYFQS | area with substrate ENQYFQS | area with substrate ENSYFQS | area with substrate ENTYFQS | area with substrate ENVYFQS | area with substrate ENCYFQS | area with substrate ENFYFQS | area with substrate ENMYFQS | area with substrate ENYYFQS | area with substrate ENRYFQS | area with substrate ENKYFQS | area with substrate ENWYFQS |
| --- | --- | --- | --- | --- | --- | --- | --- | --- | --- | --- | --- | --- | --- | --- | --- | --- | --- | --- | --- |
| H76A | 0.0527 | 0.0513 | 0.0534 | 0.0638 | 0.0611 | 0.0801 | 0.0689 | 0.0785 | 0.0603 | 0.0397 | 0.0534 | 0.0711 | – | – | – | – | – | – | – |
| H76S | 0.0618 | 0.0637 | 0.0641 | 0.0585 | 0.0546 | 0.0968 | 0.0581 | 0.0702 | 0.0578 | 0.0549 | 0.0553 | 0.0607 | 0.0708 | 0.0623 | 0.119 | 0.0549 | – | – | – |
| H62M | 0.0616 | 0.0622 | 0.0609 | 0.0431 | 0.0927 | – | 0.0759 | 0.0557 | – | 0.0613 | – | 0.073 | – | 0.0512 | – | – | 0.067 | – | – |
| N53R | 0.0531 | 0.074 | 0.0609 | 0.0598 | 0.0579 | 0.104 | 0.0577 | – | 0.0581 | 0.0789 | 0.0386 | 0.0731 | 0.0677 | 0.0667 | 0.0923 | – | 0.0361 | 0.0593 | – |
| N53I | 0.0604 | 0.0708 | 0.0603 | – | 0.0533 | 0.0737 | 0.0545 | 0.057 | 0.106 | 0.068 | 0.0628 | 0.0673 | 0.127 | 0.0584 | 0.0839 | 0.0667 | 0.0674 | 0.0566 | – |
| N53T | 0.0616 | 0.0584 | 0.0634 | 0.0765 | – | 0.0834 | – | – | 0.052 | 0.051 | 0.0703 | 0.0647 | 0.062 | 0.0349 | 0.0638 | 0.0663 | 0.0685 | – | – |
| D82Q | 0.0705 | 0.0542 | 0.0551 | 0.0651 | 0.0536 | – | 0.0642 | 0.0531 | – | 0.0534 | – | 0.0588 | 0.0621 | 0.0548 | – | 0.0629 | 0.0753 | 0.072 | – |
| I84C | 0.144 | 0.0787 | 0.0656 | 0.0721 | 0.0663 | – | – | 0.0606 | 0.0474 | – | 0.0566 | – | 0.0674 | 0.0507 | 0.101 | – | 0.0537 | – | – |
| G54N | 0.0655 | 0.0529 | 0.0626 | – | 0.0487 | 0.0458 | 0.0566 | 0.063 | 0.052 | 0.0636 | 0.0589 | 0.0556 | 0.0653 | – | 0.0582 | 0.0659 | – | – | – |
| G54T | 0.0474 | 0.0505 | 0.0549 | 0.0521 | 0.0574 | 0.0886 | 0.0425 | 0.0544 | 0.0577 | 0.0582 | 0.0639 | 0.06 | 0.0638 | 0.0466 | 0.0503 | 0.0478 | 0.0529 | 0.0522 | 0.0652 |
| G54Y | 0.047 | – | 0.055 | – | 0.101 | – | 0.057 | – | 0.0613 | 0.063 | 0.0618 | 0.0581 | 0.0577 | 0.062 | 0.0663 | 0.0719 | 0.0689 | 0.0602 | – |
| S60Q | 0.0835 | 0.0625 | 0.0707 | 0.067 | – | 0.11 | – | 0.0581 | 0.0611 | – | 0.0563 | 0.0736 | 0.0715 | – | – | – | – | – | – |
| S60Y | 0.0726 | 0.068 | 0.0739 | – | 0.0593 | – | – | 0.064 | 0.0683 | 0.0596 | – | 0.0746 | – | – | – | 0.0618 | 0.0542 | 0.0366 | 0.0793 |
| L77V | 0.0796 | 0.0572 | 0.0594 | – | 0.058 | – | 0.0559 | 0.0572 | 0.0634 | 0.0833 | 0.0374 | 0.0578 | 0.0537 | – | 0.0686 | – | 0.0648 | 0.0627 | – |
| L77D | 0.0603 | 0.0601 | 0.0607 | 0.0606 | 0.0519 | 0.0496 | 0.0677 | 0.0383 | 0.0617 | 0.0578 | 0.0643 | 0.0576 | 0.0659 | 0.0642 | 0.0627 | 0.0439 | – | 0.0652 | 0.0602 |
| K46Y | 0.0459 | – | 0.0553 | 0.0693 | 0.0456 | – | 0.0594 | – | 0.0497 | 0.0548 | 0.0487 | 0.0596 | 0.06 | 0.0542 | 0.0644 | – | 0.0643 | 0.0475 | – |
| K46H | 0.0609 | – | 0.0639 | 0.0657 | – | 0.0567 | 0.0541 | 0.0489 | 0.0607 | 0.0584 | 0.0474 | 0.0667 | 0.0599 | – | 0.0487 | – | – | 0.0632 | 0.06 |
| K46L | 0.0614 | 0.062 | 0.0597 | 0.0578 | 0.049 | 0.0644 | 0.0562 | 0.0565 | 0.0634 | 0.0703 | 0.0507 | 0.063 | 0.0625 | – | 0.0376 | – | 0.058 | 0.039 | – |
| K46Q | 0.0424 | 0.0542 | 0.058 | 0.0915 | 0.0515 | – | 0.0584 | – | 0.0488 | 0.0795 | – | – | 0.069 | 0.0568 | 0.0638 | – | 0.0569 | – | – |
| V58K | 0.0416 | – | 0.0326 | – | 0.0431 | 0.048 | – | 0.0512 | – | 0.0522 | 0.0301 | – | 0.0292 | – | – | – | 0.0309 | – | 0.0394 |
| T44C | 0.0574 | 0.0623 | 0.0595 | 0.0675 | 0.067 | 0.0755 | 0.0543 | – | 0.0592 | 0.063 | 0.062 | 0.085 | 0.0684 | 0.0667 | – | 0.0634 | 0.108 | 0.0643 | – |
| D79I | 0.0673 | – | – | – | 0.0791 | – | – | – | 0.0554 | 0.0325 | 0.03 | – | – | – | 0.0752 | – | – | – | – |
| N52R | 0.0785 | – | 0.0579 | 0.0614 | 0.057 | – | 0.0537 | 0.0425 | 0.0621 | 0.0517 | – | 0.0701 | 0.0698 | – | – | – | 0.0502 | – | – |
| N52H | 0.0566 | 0.0515 | – | 0.0606 | – | 0.0826 | 0.0648 | 0.0445 | – | 0.0717 | 0.0569 | 0.057 | 0.0539 | 0.0647 | 0.0856 | – | 0.054 | 0.0556 | – |
| G63D | 0.0548 | 0.0538 | 0.0597 | 0.0442 | 0.0563 | 0.0754 | 0.0564 | – | 0.0581 | 0.0478 | 0.0415 | 0.0783 | 0.0523 | – | – | – | 0.0508 | 0.075 | – |
| N45K | 0.0539 | 0.0722 | 0.0537 | 0.0482 | – | 0.0579 | 0.0695 | 0.057 | 0.0504 | 0.0668 | 0.0627 | 0.0583 | 0.0537 | – | – | 0.0584 | – | 0.0598 | 0.041 |
